From PubChem BioAssay (NCI) come the findings set out here.

The test has as its system HL-60(TB) leukemia. As to the kind of experiment: NCI-60 one-dose screen, 48 h (100 = growth as untreated, 0 = no growth, -100 = all killed).

A structure can be active in one record and inactive in another.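 Growth was measured after 48 h exposure to one concentration of compound in 96-well plates. Values under 10 count as active.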 A number of entries come with more than one value. The other results are left out here. An entry can have further records. These are repeated runs of one drug, at its own concentration, as given; one value stands for one run. Marks such as (2×) give the number of equal values in this list.

For the molecule `COc1cccc2c1C(=O)c1c(O)c3c(c(O)c1C2=O)C[C@@](O)(C(=O)CO)C[C@@H]3OC1CC(N)C(O)C(C)O1` (some centres undefined), the growth entry by setting is: (0.25 µM, runs of 2019) “inactive: 57.3, 47.8, 24.1, 23.1, 23.4, 29.6, 28.6, 25.8 (2×), 21.4 (2×), 28.2, 22.9, 30.1 (2×), 32, 40.2, 37.9, 41.2, 38.1, 36.3 (2×), 34.5, 36.4, 38.8, 39.1, 39.4, 48.5, 58.4, 13.8, 45, 29.8, 29, 33.2, 27.9, 27.3, 31.8, 26, 29.5, 30.2, 18.7, 61.2, 25.3, 18.8, 36.5%”; (0.25 µM, runs of 2020) “inactive: 16.4, 18, 22.5, 20.8, 17.7, 25.8, 24.2, 23.9 (2×), 23.8, 29.4, 16, 25.3, 19.3, 39, 29.8, 19.7, 36.6, 25.9, 35.9, 34.8, 27.7, 16.9, 27, 38.3%”; (0.25 µM, runs of 2021) “inactive: 14.1, 21.7, 27.6, 30.6, 32, 24.8, 23, 36.2, 32.4, 26.6, 27.8, 14.9, 15, 23.3 (2×), 25.5, 21.8, 16.4, 17.1, 18.1, 28.5, 17, 19.3, 21.9, 22.9, 33.9, 18.3, 24.5, 17.9, 21.5, 22.5, 13.8, 19.8, 12.9, 18.9, 19.9, 13.7, 13.3, 13.6, 16.7, 10.9, 11.6, 23.4, 20, 24.9, 17.3, 17.4, 27.4% and active: 8.27%, -1.25%”; (0.25 µM, runs of 2022) “inactive: 44.9, 57.2, 11.6, 35.9, 44.3, 53.9 (2×), 70.4, 48.4, 46.6, 61.3, 60.1, 32.3, 38.5, 46.2, 70.5, 19.3, 18, 23.1, 10.9% and active: 8.53, 3.92, 4.02, 3.73, 9.88%”; (25 µM, runs of 1991) “active: -50.4, -40.6, -33, -58.6, -50.7, -42.5, -69.3, -69.1, -66.7, -54.3, -55.6, -47.5, -36.3, -22.4, 3.73% and inactive: 18.8%, 12.8%”; (25 µM, runs of 1992) “active: -50.9, -52.2, -51.9, -46.4, -57.7, -45.9, 2.66, -48.7 (2×), -43, -15.3, -62.8, -61.9, -56.6, -52.8, -51.2, -45.4, -57.2, -45.2, -32.7, -34.8, -47.5, -33.8, -28.2 (2×), -44.1, -55.2, -73.3, -33.1, -50.5, -5.2, -65.9, -81.5, -31.4, -38.2, -40.1, -54.5, -2.28, 9.38, -40.7, -38.1, 1.09, -54.2 (2×), -42.7, -46.5, -68.5, -29.3, -70.2, -53.8, -56.8, -68.1, -32, -55.7, -23.3, -45.7, -68.4, -63.2, -57.6, -45.5, -60.6, -40.8, -17.5, -18.6, -43.4, -50.6, -54.4, -80.4, -32.4, -25.9, -65.7, 6.56, 3.46, -15.5, -34.7, -38.3 (2×), -24.1, -71.1, -71.3, -51.8, -46.2, -10.3, -48.9, -36.7, -66.3, -47 (2×), -64.2, -61.8, -3.83, -56.7, -56.2, -65.5, -58, -63.3, -47.1, -59.6, -65.2, -63.1, -53.6, -18.1, -55.9, -67.8, -12.2, -48.5, -21.8, -61.2, -39.2, -66.9, -35.3, -29.8% and inactive: 11.6, 34.9, 23.2, 10, 11.9, 11.1, 33.5, 44.5%”. Further, the growth result was “active: -38.3, -39.8, -57.5, -69.9, -38.2, -59.1, -51.3, 3.9, -39.1, -21.8, 0.71, -63.4, -11.3, -74.2, -50.2, -35.8, -48.3, -56.3, -66, -60.7, -66.2, -49.5, -38.6, -65.6, -60.9, -26, -61.2, -61.1, -73.3, -56.7, 6.08, -64, -51.5, -63.3, -70.5, 1.13, -59.7, -53.4, -60, -19.2, -24.3, -37.2% and inactive: 20.9, 26, 12.4, 49.4, 47.3%” (25 µM, runs of 1993); “active: -26.7, -56, -69.6, 1.81, -8.57, -42.7, -31.8, -50.4, -16.7, -35, -62.9, -5.98, -24.5, -48, -54, -7.56, -71.6, -34.8, -12.8, -17.4, -47.9, -45.8, 2.32, -47, -44.9, 5.22, -31.3, -59.8% and inactive: 99.5%, 21.4%, 22.2%” (25 µM, runs of 1994); “active: -44.1, -34.5, -51.9, -44.4, -55.6, -42, -37.7, -62.2, -54, -42.9, -57.3, -55.4, -59.6 (2×), -53.7, -49, -17.5, -72.8, -8.17, -29.5, -53.9, -62, -30.9, -29.7, -14, -42.5, 8.42, -62.5, -62.7, -24.8, -47.7, -57, 1.96% and inactive: 18.1%, 14.9%” (25 µM, runs of 1995); “active: 4.5, -10.8, -42.2, -26.5, -57.3, -59, -4.18, -50.7, -53.9, -51.2, -86.2, -53.3, -86.8, -22.9, -50.4, 1.53, -71.9, -42.3, -43.5, -50.8, -49.2, -72.7, -64.7, -26.3, -42.1, -45.5, -52.1, -8.64, -47.6, -40.6, -100, -54.4% and inactive: 47.5, 110, 10.3, 50.1, 34.5%” (25 µM, runs of 1996); “active: -50.3, -26.4, -52.8, -63.9, -34.1, -40.6, -25.1, -52.2, -53.1, -49.4, -19.5, -18.4, 0, -43.5, -10.8, -1.15, 5.91, -24.9, -6.61, -0.595, -41.8, -16.3, -22.8, -19.9% and inactive: 18.6, 12.8, 20.5, 30, 95.8%” (25 µM, runs of 1997); “active: -24.3, -53, -75.3, -73.6, -37.7, -54.2, -33.4, -50.9, 5.95, -26.9, -58.9, -46.8, 8.79, -43.1, -40.6, -60.9, -47.1, -52.9, -42% and inactive: 47.9%” (25 µM, runs of 1998). Further, the growth entry (25 µM, runs of 1999) was “active: -50.5, -34.1, -34, -50.2, -67.5, -49.5, -84.1, -60.8, 3.06, 1.4, -83.6, -25.6 (2×), 1.77, -79.3, 1.19, -81, -21.8%” and the growth entry (25 µM, runs of 2000) was “active: -70.2, -100, 3.13, -78.6%”.
